From PubChem BioAssay (Tox21)
Where “and” joins values, the source holds several entries; their conditions need not be identical. Identical values can stand only once. The inconclusive results got no clear call from the source; some entries with a clear call stand among them for comparison. For part of these data: Potencies of inconclusive entries are doubtful fits and often do not repeat. Calls of active or inactive are those of the source. Calls come from the whole dose curve; as a rule, active = well fitted curve in the direction sought with a large enough effect in the repeat runs; inconclusive = weak or mixed curves; inactive = no such curve, though single readings can be large; an effect the other way counts as inactive or inconclusive.

What was measured:
[1] = qHTS RealTime-Glo MT Cell Viability Assay in HEK293 cells - 0 hour (AID 1224880); note: nearly all actives have a fitted effect of over 45% in size; note: potency is the fitted concentration of half-maximal effect
Outline: (§1)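 Luminescence readout at each listed time point; HEK293, 600 cells/well, RealTime-Glo MT reagent added with cells; compounds pinned (23 nL in DMSO) after 5 h at 37 C; continuous culture at 37 C.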

[2] = qHTS RealTime-Glo MT Cell Viability Assay in HEK293 cells - 24 hour (AID 1224886); note: nearly all actives have a fitted effect of over 50% in size; note: potency is the fitted concentration of half-maximal effect
Outline: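 Cells + reagent dispensed (600 cells/well, HEK293) → 5 h at 37 C/5% CO2 → 23 nL compound in DMSO pinned → 40 h at 37 C → luminescence read at 0, 8, 16, 24, 32, 40 h.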

[3] = qHTS RealTime-Glo MT Cell Viability Assay in HepG2 cells - 0 hour (AID 1224889); note: potency is the fitted concentration of half-maximal effect; nearly all actives have a fitted effect of over 50% in size
Outline: (§2)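 Real-time, nonlytic viability: 600 HepG2 cells/well mixed with NanoLuc enzyme plus prosubstrate; 5 h settle, compound (DMSO) added by pintool; luminescence monitored over 40 h at 37 C.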

[4] = qHTS assay to identify small molecule agonists of the sonic hedgehog signaling (Shh) pathway - cell viability counter screen (AID 1259366); note: nearly all actives have a fitted effect of over 50% in size; note: potency is the fitted concentration of half-maximal effect
Outline: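 Compounds in DMSO were pin-transferred onto 3T3 Gli1-Luc cells that had settled 4hr; plates then stood 24hr at 37C and 5% CO2. One hour before the end, CellTiter-Fluor was added and fluorescence recorded.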

[5] = qHTS assay to identify small molecule antagonists of the sonic hedgehog signaling (Shh) pathway - cell viability counter screen (AID 1259367); note: nearly all actives have a fitted effect of over 55% in size; note: potency is the fitted concentration of half-maximal effect
Outline: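 Cytotoxicity was assessed in parallel with Shh reporter activity by measuring live-cell protease fluorescence (CellTiter-Fluor) in NIH/3T3 cells stably carrying Gli1-Luc, treated with compound under conditioned medium stimulation for 23 hr plus 1 hr reagent incubation.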

[6] = qHTS RealTime-Glo MT Cell Viability Assay in HEK293 cells - 8 hour (AID 1224887); note: nearly all actives have a fitted effect of over 50% in size; note: potency is the fitted concentration of half-maximal effect
Outline: as §1

[7] = A CellTox Green Cytotoxicity Assay to monitor cytotoxicity in HepG2 cells - 8 hour (AID 1224890); note: nearly all actives have a fitted effect of over 45% in size
Outline: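 HepG2, 600 cells/well premixed w/ CellTox Green; 5 h settle, 37 C/5% CO2; pintool cpd add (DMSO); 37 C, 40 h; fluorescence read at 0, 8, 16, 24, 32, 40 h.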

[8] = target: Estrogen receptor (Homo sapiens) (UniProt P03372); test: qHTS assay to identify small molecule antagonists of the estrogen receptor alpha (ER-alpha) signaling pathway using the BG1 cell line in the presence of 0.1 nM 17-beta-estradiol (AID 1259244)
Sequence of UniProt P03372 (P03372 whole entry, looked up): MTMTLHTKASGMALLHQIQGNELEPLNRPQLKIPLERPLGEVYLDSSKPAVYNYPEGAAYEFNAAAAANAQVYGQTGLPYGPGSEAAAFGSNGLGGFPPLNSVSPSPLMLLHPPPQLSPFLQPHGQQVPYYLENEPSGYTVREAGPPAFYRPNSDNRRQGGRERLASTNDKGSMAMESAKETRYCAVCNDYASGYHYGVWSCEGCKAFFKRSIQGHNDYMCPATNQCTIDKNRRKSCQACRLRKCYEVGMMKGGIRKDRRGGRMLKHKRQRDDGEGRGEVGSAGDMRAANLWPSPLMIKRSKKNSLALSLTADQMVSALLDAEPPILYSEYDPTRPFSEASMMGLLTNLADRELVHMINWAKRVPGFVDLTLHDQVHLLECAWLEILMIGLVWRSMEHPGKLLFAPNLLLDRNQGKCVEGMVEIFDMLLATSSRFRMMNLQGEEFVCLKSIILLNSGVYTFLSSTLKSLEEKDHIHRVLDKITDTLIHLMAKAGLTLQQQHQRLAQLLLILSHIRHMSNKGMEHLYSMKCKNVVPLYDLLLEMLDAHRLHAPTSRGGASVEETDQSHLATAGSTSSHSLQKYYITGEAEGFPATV
Outline: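 Luminescence after ONE-Glo (30 min, room temperature) measured ERE-luciferase activity in VM7Luc4E2 cells treated 22 h with compound and 0.1 nM final 17beta-estradiol as stimulator.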

[9] = qHTS RealTime-Glo MT Cell Viability Assay in HepG2 cells - 16 hour (AID 1224885); note: nearly all actives have a fitted effect of over 50% in size; note: potency is the fitted concentration of half-maximal effect
Outline: as §2

[10] = A CellTox Green Cytotoxicity Assay to monitor cytotoxicity in HEK293 cells - 8 hour (AID 1224884); note: potency is the fitted concentration of half-maximal effect; nearly all actives have a fitted effect of over 35% in size
Outline: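 Read-out: fluorescence of a cell-impermeant cyanine dye staining DNA of dead cells, proportional to cytotoxicity. HEK293, 600 cells/well with reagent, compound (23 nL DMSO) added after 5 h; reads at 0, 8, 16, 24, 32, 40 h.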

[11] = target: Androgen receptor (Homo sapiens) (UniProt P10275); test: qHTS assay to identify small molecule antagonists of the androgen receptor (AR) signaling pathway using the MDA cell line in the presence of 0.5 nM R1881 (AID 1259243)
Sequence of UniProt P10275 (P10275 whole entry, looked up): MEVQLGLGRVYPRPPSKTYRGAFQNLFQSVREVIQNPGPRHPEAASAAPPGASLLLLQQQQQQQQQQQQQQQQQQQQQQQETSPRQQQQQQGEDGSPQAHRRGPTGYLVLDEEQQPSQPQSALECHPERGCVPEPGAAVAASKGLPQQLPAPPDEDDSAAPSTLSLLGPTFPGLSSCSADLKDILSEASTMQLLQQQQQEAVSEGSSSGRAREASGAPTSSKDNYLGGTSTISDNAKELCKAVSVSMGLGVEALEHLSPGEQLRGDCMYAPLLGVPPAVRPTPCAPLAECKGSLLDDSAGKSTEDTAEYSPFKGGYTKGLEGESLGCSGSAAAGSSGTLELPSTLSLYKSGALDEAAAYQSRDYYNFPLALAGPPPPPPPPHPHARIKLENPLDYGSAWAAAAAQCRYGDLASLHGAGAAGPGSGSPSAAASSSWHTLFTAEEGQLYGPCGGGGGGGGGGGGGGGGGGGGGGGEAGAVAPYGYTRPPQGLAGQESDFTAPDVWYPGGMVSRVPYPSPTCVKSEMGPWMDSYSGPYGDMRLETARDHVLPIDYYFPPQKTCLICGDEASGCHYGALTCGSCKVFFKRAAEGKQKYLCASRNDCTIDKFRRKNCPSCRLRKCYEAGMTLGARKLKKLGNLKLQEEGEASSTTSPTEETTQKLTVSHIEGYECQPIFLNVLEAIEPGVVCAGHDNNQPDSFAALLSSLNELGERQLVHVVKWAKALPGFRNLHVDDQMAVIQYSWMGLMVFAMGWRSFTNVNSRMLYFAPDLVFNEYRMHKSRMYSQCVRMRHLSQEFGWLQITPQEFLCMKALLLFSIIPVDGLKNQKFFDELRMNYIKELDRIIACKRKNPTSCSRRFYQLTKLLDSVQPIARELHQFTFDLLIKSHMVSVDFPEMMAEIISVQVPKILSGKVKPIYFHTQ
Outline: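 MDA-kb2, MMTV-luc (AR/GR elements); 3,000 cells/well; cpd + 0.5 nM R1881 final; 16 hr 37C, 0% CO2; ONE-Glo 30 min RT; luminescence.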
Tags give direction and shape of the fitted curve.

For CCCCCCCCOCCCN, which Potency [1] is on record?
The Potency was inconclusive: 19.5 µM [rising, partial curve].

What about the Potency [2] of the same molecule?
The Potency was “inactive”.

What about the Potency [3] of the same molecule?
Its Potency is inconclusive: 24.5 µM [rising, partial curve].

What about the Potency [4] of the same molecule?
The Potency was inconclusive: 68.6 µM [cytotoxic, single point].

What about the Potency [5] of the same molecule?
Its Potency is inconclusive: 68.6 µM [cytotoxic, single point].

What does the source list for CC(=O)N(O)CCCCCNC(=O)CCC(=O)N(O)CCCCCNC(=O)CCC(=O)N(O)CCCCCN?
Potency [1]: inactive; Potency [2]: inconclusive: 16.9 µM [cytotoxic, partial curve, poor fit]

For CCCCOCC, which Potency [1] is on record?
The Potency was inconclusive: 61.6 µM [rising, single point].

What about the Potency [2] of the same molecule?
The Potency was inconclusive: 54.9 µM [rising, single point].

What about the Potency [6] of the same molecule?
The Potency was inconclusive: 54.9 µM [rising, single point].

What about the Potency [7] of the same molecule?
Its Potency is “inactive”.

For O=P(OC(CCl)CCl)(OC(CCl)CCl)OC(CCl)CCl, which Potency [1] is on record?
Its Potency is inconclusive: 7.76 µM [rising, partial curve, poor fit].

And the Potency [6]?
The Potency was inconclusive: 43.4 µM [cytotoxic, partial curve] and inconclusive: 54.9 µM [cytotoxic, single point].

What about the Potency [8] of the same molecule?
The Potency was inconclusive: 68.2 µM [inhibitor, single point] and inconclusive: 54.5 µM [inhibitor, partial curve].

And the Potency [4]?
The Potency was active: 30.5 µM and inconclusive: 68.6 µM [cytotoxic, partial curve, poor fit].

What about the Potency [5] of the same molecule?
The Potency was active: 30.5 µM and inconclusive: 43.3 µM [cytotoxic, partial curve].

With CCOc1ccc(NS(=O)(=O)c2ccc(N)cc2)nn1 as the molecule, how does the Potency [1] read?
Its Potency is “inactive”.

And the Potency [2]?
Its Potency is inconclusive: 0.0756 µM [cytotoxic, partial curve, poor fit].

And the Potency [6]?
Its Potency is inconclusive: 0.0952 µM [cytotoxic, single point].

Which Potency [1] does the source give for O=Cc1ccccc1S(=O)(=O)O here?
Its Potency is “inactive”.

And the Potency [9]?
The Potency was “inactive”.

For C[C@]12C=CC(=O)C=C1[C@@H](F)C[C@@H]1[C@@H]2[C@@H](O)C[C@@]2(C)[C@H]1CC[C@]2(O)C(=O)CO, which Potency [1] is on record?
Its Potency is inconclusive: 21.3 µM [falling, single point].

And the Potency [2]?
The Potency was “inactive”.

What about the Potency [3] of the same molecule?
The Potency was active: 10.7 µM.

What does the source list for OCCCO?
Potency [1]: inactive; Potency [2]: inactive; Potency [5]: inactive

Which Potency [1] does the source give for O=C1c2ccccc2C(=O)C1c1ccc2cc(S(=O)(=O)O)cc(S(=O)(=O)O)c2n1 here?
Its Potency is inconclusive: 42.1 µM [falling, partial curve, poor fit].

What about the Potency [6] of the same molecule?
The Potency was inconclusive: 37.5 µM [cytotoxic, partial curve].

What about the Potency [3] of the same molecule?
Its Potency is inconclusive: 53 µM [cytotoxic, partial curve].

And the Potency [4]?
Its Potency is active: 29.5 µM.

What about the Potency [5] of the same molecule?
The Potency was active: 29.5 µM.

For O=C[O][Al]([O]C=O)[O]C=O, which Potency [1] is on record?
Its Potency is inconclusive: 61.6 µM [rising, partial curve, poor fit].

And the Potency [10]?
The Potency was inconclusive: 24.5 µM [activator, full curve, poor fit].

And the Potency [6]?
Its Potency is inconclusive: 61.6 µM [rising, partial curve, poor fit].

And the Potency [4]?
The Potency was inconclusive: 68.6 µM [rising, single point].

What does the source list for COC(=O)C1=C(C)NC(C)=C(C(=O)OC(C)C)C1c1cccc2nonc12 (stereo not given)?
Potency [1]: active: 1.69 µM; Potency [9]: inconclusive: 9.52 µM [cytotoxic, partial curve]; Potency [2]: inconclusive: 16.9 µM [cytotoxic, partial curve]; Potency [6]: inconclusive: 21.3 µM [cytotoxic, partial curve]; Potency [3]: active: 1.07 µM; Potency [11]: inconclusive: 33.5 µM [inhibitor]; Potency [4]: inconclusive: 21.1 µM [cytotoxic, partial curve]; Potency [5]: inconclusive: 33.5 µM [cytotoxic, single point]

With CCN(CCO)c1cccc(C)c1 as the molecule, how does the Potency [1] read?
The Potency was “inactive”.

And the Potency [6]?
The Potency was “inactive”.

What about the Potency [4] of the same molecule?
The Potency was “inactive”.

What does the source list for C[C@@H]1C[C@H]2[C@@H]3CCC4=CC(=O)C=C[C@]4(C)[C@@]3(F)[C@@H](O)C[C@]2(C)[C@@]1(O)C(=O)COC(=O)c1ccncc1?
Potency [1]: active: 3.01 µM; Potency [2]: inactive; Potency [3]: active: 1.07 µM

Which Potency [1] does the source give for O=C(C1CCCCC1)N1CC(=O)N2CCc3ccccc3C2C1 (stereo not given) here?
Its Potency is “inactive”.

And the Potency [2]?
Its Potency is inconclusive: 38.9 µM [cytotoxic, partial curve].

And the Potency [6]?
The Potency was inconclusive: 54.8 µM [cytotoxic, partial curve, poor fit] and inactive.

What about the Potency [4] of the same molecule?
Its Potency is inconclusive: 27.3 µM [cytotoxic, partial curve] and inconclusive: 30.6 µM [cytotoxic] and inconclusive: 29.8 µM [cytotoxic, partial curve, poor fit].

And the Potency [5]?
The Potency was inconclusive: 30.6 µM [cytotoxic, partial curve] and inconclusive: 34.4 µM [cytotoxic, partial curve].

With C=CC(=O)OCC(Br)CBr (stereo not given) as the molecule, how does the Potency [1] read?
The Potency was inconclusive: 49 µM [rising, partial curve, poor fit].

What about the Potency [2] of the same molecule?
Its Potency is inconclusive: 54.9 µM [rising, partial curve].

What does the source list for CC(=O)[C@H]1CC[C@H]2[C@@H]3C[C@H](C)C4=CC(=O)CC[C@]4(C)[C@H]3[C@@H](O)C[C@]12C?
Potency [1]: active: 1.69 µM; Potency [2]: inconclusive: 23.9 µM [cytotoxic, partial curve]; Potency [3]: active: 0.379 µM
